Data on 31 molecules can be found in PMC9911399, “Two distinct binding modes provide the RNA-binding protein RbFox with extraordinary sequence specificity”.

B1: CUGAAGA (DNA:RNA)
RNA: GGGAGACCGGAAUUCAGAUUGUCCCUGAAGAUUAAAUCCCGUCGUAGCCACCA
DNA 1: CAATCTGAATTCCGGTCTCCC
DNA 2: TGGTGGCTACGACGGGATT
B2: CCAUCGA (DNA:RNA)
RNA: B1 RNA with U26C, G27A, A28U, A29C
DNA 1: CAATCTGAATTCCGGTCTCCC
DNA 2: TGGTGGCTACGACGGGATT
B3: AGCGCUA (DNA:RNA)
RNA: B1 RNA with C25A, U26G, G27C, A28G, A29C, G30U
DNA 1: CAATCTGAATTCCGGTCTCCC
DNA 2: TGGTGGCTACGACGGGATT
B4: UUGAGCU (DNA:RNA)
RNA: B1 RNA with C25U, A29G, G30C, A31U
DNA 1: CAATCTGAATTCCGGTCTCCC
DNA 2: TGGTGGCTACGACGGGATT
B5: CGGCGGA (DNA:RNA)
RNA: B1 RNA with U26G, A28C, A29G
DNA 1: CAATCTGAATTCCGGTCTCCC
DNA 2: TGGTGGCTACGACGGGATT
B6: AAAAUAG (DNA:RNA)
RNA: B1 RNA with C25A, U26A, G27A, A29U, G30A, A31G
DNA 1: CAATCTGAATTCCGGTCTCCC
DNA 2: TGGTGGCTACGACGGGATT
B7: UUCCCAU (DNA:RNA)
RNA: B1 RNA with C25U, G27C, A28C, A29C, G30A, A31U
DNA 1: CAATCTGAATTCCGGTCTCCC
DNA 2: TGGTGGCTACGACGGGATT
B8: UUGUUAC (DNA:RNA)
RNA: B1 RNA with C25U, A28U, A29U, G30A, A31C
DNA 1: CAATCTGAATTCCGGTCTCCC
DNA 2: TGGTGGCTACGACGGGATT
B9: AAUAGCA (DNA:RNA)
RNA: B1 RNA with C25A, U26A, G27U, A29G, G30C
DNA 1: CAATCTGAATTCCGGTCTCCC
DNA 2: TGGTGGCTACGACGGGATT
B10: UGAUCAC (DNA:RNA)
RNA: GGGAGACCGGAAUUCAGAUUGUCCUGAUCACUUAAAUCCCGUCGUAGCCACCA
DNA 1: CAATCTGAATTCCGGTCTCCC
DNA 2: TGGTGGCTACGACGGGATT
B11: ACCGUGG (DNA:RNA)
RNA: B1 RNA with C25A, U26C, G27C, A28G, A29U, A31G
DNA 1: CAATCTGAATTCCGGTCTCCC
DNA 2: TGGTGGCTACGACGGGATT
B12: CCGGCGA (DNA:RNA)
RNA: B1 RNA with U26C, A28G, A29C
DNA 1: CAATCTGAATTCCGGTCTCCC
DNA 2: TGGTGGCTACGACGGGATT
B13: AGCCACC (DNA:RNA)
RNA: B10 RNA with U25A, A27C, U28C, C29A, A30C
DNA 1: CAATCTGAATTCCGGTCTCCC
DNA 2: TGGTGGCTACGACGGGATT
B14: AGAAUUA (DNA:RNA)
RNA: B1 RNA with C25A, U26G, G27A, A29U, G30U
DNA 1: CAATCTGAATTCCGGTCTCCC
DNA 2: TGGTGGCTACGACGGGATT
B15: GGGCUUG (DNA:RNA)
RNA: B1 RNA with C25G, U26G, A28C, A29U, G30U, A31G
DNA 1: CAATCTGAATTCCGGTCTCCC
DNA 2: TGGTGGCTACGACGGGATT
B16: AAUGAGG (DNA:RNA)
RNA: B1 RNA with C25A, U26A, G27U, A28G, A31G
DNA 1: CAATCTGAATTCCGGTCTCCC
DNA 2: TGGTGGCTACGACGGGATT
B17: GAUUAGA (DNA:RNA)
RNA: B1 RNA with C25G, U26A, G27U, A28U
DNA 1: CAATCTGAATTCCGGTCTCCC
DNA 2: TGGTGGCTACGACGGGATT
B18: ACUAAUU (DNA:RNA)
RNA: B1 RNA with C25A, U26C, G27U, G30U, A31U
DNA 1: CAATCTGAATTCCGGTCTCCC
DNA 2: TGGTGGCTACGACGGGATT
B19: AUGCACU (DNA:RNA)
RNA: B1 RNA with C25A, A28C, G30C, A31U
DNA 1: CAATCTGAATTCCGGTCTCCC
DNA 2: TGGTGGCTACGACGGGATT
B20: UCACUCU (DNA:RNA)
RNA: B10 RNA with G26C, U28C, C29U, A30C, C31U
DNA 1: CAATCTGAATTCCGGTCTCCC
DNA 2: TGGTGGCTACGACGGGATT
B21: GUCCCUG (DNA:RNA)
RNA: B1 RNA with C25G, G27C, A28C, A29C, G30U, A31G
DNA 1: CAATCTGAATTCCGGTCTCCC
DNA 2: TGGTGGCTACGACGGGATT
B22: ACCUUUC (DNA:RNA)
RNA: B10 RNA with U25A, G26C, A27C, C29U, A30U
DNA 1: CAATCTGAATTCCGGTCTCCC
DNA 2: TGGTGGCTACGACGGGATT
B23: UUUGUUU (DNA:RNA)
RNA: B1 RNA with C25U, G27U, A28G, A29U, G30U, A31U
DNA 1: CAATCTGAATTCCGGTCTCCC
DNA 2: TGGTGGCTACGACGGGATT
B24: UAAGAGC (DNA:RNA)
RNA: B10 RNA with G26A, U28G, C29A, A30G
DNA 1: CAATCTGAATTCCGGTCTCCC
DNA 2: TGGTGGCTACGACGGGATT
B25: GCUAUGG (DNA:RNA)
RNA: B1 RNA with C25G, U26C, G27U, A29U, A31G
DNA 1: CAATCTGAATTCCGGTCTCCC
DNA 2: TGGTGGCTACGACGGGATT
B26: AACCGAC (DNA:RNA)
RNA: B10 RNA with U25A, G26A, A27C, U28C, C29G
DNA 1: CAATCTGAATTCCGGTCTCCC
DNA 2: TGGTGGCTACGACGGGATT
B27: GGAAAUA (DNA:RNA)
RNA: B1 RNA with C25G, U26G, G27A, G30U
DNA 1: CAATCTGAATTCCGGTCTCCC
DNA 2: TGGTGGCTACGACGGGATT
B28: UAGCGGU (DNA:RNA)
RNA: B1 RNA with C25U, U26A, A28C, A29G, A31U
DNA 1: CAATCTGAATTCCGGTCTCCC
DNA 2: TGGTGGCTACGACGGGATT
B29: CCAAUUA (DNA:RNA)
RNA: B1 RNA with U26C, G27A, A29U, G30U
DNA 1: CAATCTGAATTCCGGTCTCCC
DNA 2: TGGTGGCTACGACGGGATT
B30: GCAUGAG (DNA:RNA)
RNA: B10 RNA with U25G, G26C, C29G, C31G
DNA 1: CAATCTGAATTCCGGTCTCCC
DNA 2: TGGTGGCTACGACGGGATT
B31: GACCUUG (DNA:RNA)
RNA: GGGAGACCGGAAUUCAGAUUGUCCGACCUUGUUAAAUCCCGUCGUAGCCACCA
DNA 1: CAATCTGAATTCCGGTCTCCC
DNA 2: TGGTGGCTACGACGGGATT

Positions count from the first letter of the chain named. The list shows a part of the results.

This assay has as its target T1, RBFOX1 RRM (Homo sapiens, UniProt Q9NWB1 109-208).
T1 sequence: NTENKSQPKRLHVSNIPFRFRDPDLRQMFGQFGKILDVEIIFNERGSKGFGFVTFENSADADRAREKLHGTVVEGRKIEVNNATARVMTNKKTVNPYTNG
As to the kind of experiment: EMSA; HiTS-Eq, 1 nM pool, 10 min; buffer printed only for the single-RNA assays: 10 mM Tris pH 7.5, 150 mM NaCl, 3.4 mM EDTA, 0.001% NP-40, 30 C. The conditions noted are these: tags: His6 N-terminal (pET28a); label: 5' 32P. Put shortly: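 Relative association constants, normalised to the cognate motif, were derived by comparing read counts of each RNA species with those of the control reaction. The RNA sequenced was the free fraction, separated by 8% native PAGE after a 10 min equilibration in 50 µL of 1 nM 5′-radiolabelled RNA (7 randomized nucleotides) with increasing concentrations of purified wild-type or mutant RbFox RRM.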
For B1, the binding signal was 0.0172 KA relative to UGCAUGU.
B2: the binding signal is 0.00548 KA relative to UGCAUGU.
For the molecule B3, the binding signal was 0.00499 KA relative to UGCAUGU.
For the molecule B4, the binding signal was 0.0194 KA relative to UGCAUGU.
Turning to B5, the binding signal was 0.0227 KA relative to UGCAUGU.
Consider B6, for which the binding signal was 0.00136 KA relative to UGCAUGU.
For B7, the binding signal is 0.00778 KA relative to UGCAUGU.
As to B8, the binding signal was 0.0172 KA relative to UGCAUGU.
The figure for B9 is 0.00868 KA relative to UGCAUGU; for B10 it is 0.00973 KA relative to UGCAUGU; for B11 it is 0.00904 KA relative to UGCAUGU.
Take B12: the binding signal is 0.0103 KA relative to UGCAUGU.
B13: the binding signal was 0.00144 KA relative to UGCAUGU.
On to B14, for which the binding signal was 0.00122 KA relative to UGCAUGU.
In the case of B15, the binding signal is 0.0531 KA relative to UGCAUGU.
For the molecule B16, the binding signal is 0.0101 KA relative to UGCAUGU.
The figure for B17 is 0.0189 KA relative to UGCAUGU; for B18 it is 0.00106 KA relative to UGCAUGU.
As to B19, the binding signal was 0.0113 KA relative to UGCAUGU.
On to B20, for which the binding signal was 0.00609 KA relative to UGCAUGU.
Consider B21, for which the binding signal was 0.0152 KA relative to UGCAUGU.
For the molecule B22, the binding signal was 0.0028 KA relative to UGCAUGU.
As for B23, the binding signal is 0.0255 KA relative to UGCAUGU.
Turning to B24, the binding signal is 0.00886 KA relative to UGCAUGU.
For B25, the binding signal was 0.0134 KA relative to UGCAUGU.
Take B26: the binding signal is 0.00215 KA relative to UGCAUGU.
Consider B27, for which the binding signal was 0.00335 KA relative to UGCAUGU.
On to B28, for which the binding signal is 0.0132 KA relative to UGCAUGU.
B29: the binding signal was 0.0006 KA relative to UGCAUGU.
For B30, the binding signal was 0.684 KA relative to UGCAUGU.
On to B31, for which the binding signal is 0.0144 KA relative to UGCAUGU.
